Measurements as given in PubChem BioAssay AID624296 (National Center for Advancing Translational Sciences (NCATS), 2012).
In all, about 350,000 compounds went through this assay and about 9,900 (2.8%) were called active. The inconclusive results got no clear call from the source; some entries with a clear call stand among them for comparison. The call rests on the fitted dose curve; in most records, active means well fitted activation curve with a large enough effect; inconclusive means small, poorly fitted or top-dose-only effect; inactive means no such curve, though single readings can be large or run the other way. No potency is given beside an inconclusive call; the fits are too rough.

Test: A quantitative high throughput screen for small molecules that induce DNA re-replication in MCF 10a normal breast cells. Further: nearly all actives have a fitted effect of over 50% in size. On activity, positive = re-replication: % of control where 0% means no effect.
Settings: MCF 10A DNA re-replication, Hoechst nuclear intensity, 48 h; activity, positive = re-replication: at 46.1 µM (top of the series)
Potency means the concentration at half of the fitted maximal effect; tags describe the fitted curve by direction and shape.

| SMILES | activity, positive = re-replication | Potency |
| --- | --- | --- |
| CC(NC(=O)c1ccco1)c1nc(-c2ccc(Cl)cc2)no1 (centres undefined) | inactive: -3.08% | – |
| Cc1cc2c(cc1C)N(Cc1ccc(Cl)cc1)C1=NCCCN12 | inactive: 20.8% | – |
| CCC(Sc1nc2sc(C(=O)OC)c(C)c2c(=O)n1N)C(=O)N(CC)CC (centres undefined) | inactive: 0.573% | – |
| CC(C)c1ccccc1-n1c(SCC(=O)N2CCN(c3ccccc3)CC2)nnc1-c1cccnc1 | inactive: -9.47% | – |
| Cc1ccccc1C(=O)Nc1cccc(NC(=O)c2cccnc2)c1 | inactive: 0.998% | – |
| CCN(CC)CCCNC(=O)CCC(=O)Nc1ccc2nc(N3CCCCC3)cc(C)c2c1 | – | inconclusive [activator, single point] |
| C=C1CCC[C@]2(C)C[C@H]3OC(=O)C(CN4CC(C)OC(C)C4)[C@H]3C[C@@H]12 (some centres undefined) | – | inconclusive [activator, single point] |
| CN(C(=O)c1cnc(N2CCN(c3ncccn3)CC2)c2ccccc12)c1ccc(Cl)cc1 | – | inconclusive [activator, single point] |
| O=C(CCN1CCOCC1)N/N=C/c1cc(Br)cc(Br)c1O | – | inconclusive [activator, single point] |
| COC(=O)c1sccc1NC(=O)Nc1ccc(F)cc1F | inactive: 0.244% | – |
| CC(=O)Oc1cccc(C2C3=C(CC(C)(C)CC3=O)Nc3ccccc3N2C(C)=O)c1 (centres undefined) | – | inconclusive [activator, partial curve, poor fit] |
| O=C1N(c2ccccc2)C(=Nc2ccccc2)SC12CC2 | – | inconclusive [activator, partial curve, poor fit] |
| O=C(COC(=O)C1(c2ccc(F)cc2)CCCC1)Nc1ncc(C(F)(F)F)cc1Cl | – | inconclusive [activator, partial curve, poor fit] |
| O=C(Nc1ccc(Cl)cc1)Nc1nnc(SCc2ccc(Cl)cc2)s1 | inactive: 6.67% | – |
| O=C(Nc1nc2ccccc2s1)c1cc(-c2ccco2)nc2ccccc12 | – | inconclusive [activator, single point] |
| O=C1/C(=C/c2ccccn2)SC(=S)N1Nc1ncc(C(F)(F)F)cc1Cl | – | inconclusive [activator, single point] |
| CC[C@@H]1C/C=C\Cc2ccccc2[C@H](C(=O)C[C@@H](O)CC(C)=O)OC1=O | – | inconclusive [activator, single point] |
| CCCn1c(SCC(=O)Nc2nc(-c3ccc(OC)cc3)cs2)nc2c1c(=O)n(C)c(=O)n2C | – | inconclusive [activator, partial curve, poor fit] |
| O=C(N1CCOCCOc2ccccc2OCCOCC1)C(F)(F)F | inactive: -0.937% | – |
| COc1cccc(OC)c1C(=O)Nc1ccc(N2CCCCC2)cc1 | – | inconclusive [activator, partial curve, poor fit] |
| Cc1cc(N2CCN(S(=O)(=O)c3ccc(C)c(C)c3)CC2)c2ccccc2n1 | – | active: 10.3 µM |
| O=C(Nc1ncccn1)c1ccc([N+](=O)[O-])o1 | – | active: 9.2 µM |
| Cc1cc(-c2ccccc2)nc2oc(C(=O)NN)c(N)c12 | – | inconclusive [activator, single point] |

| SMILES | activity, positive = re-replication | Potency |
| --- | --- | --- |
| COC(=O)c1ccc(/C=C/C(=O)c2ccc(OC)c(OC)c2)cc1 | – | inconclusive [activator, single point] |
| N#CCSc1nc2ccc(N3CCCCC3)cc2c(=O)n1Cc1ccccc1 | – | active: 16.4 µM |
| CN(C)c1nc(N)nc(CSc2ncc(Cl)cc2Cl)n1 | – | inconclusive [activator, partial curve, poor fit] |
| Cc1cc(C)n(-c2nc3ccccc3nc2N2CCN(C(=O)c3ccc(Cl)cc3)CC2)n1 | – | active: 1.84 µM |
| N#C/C(=N\Nc1ccc(S(=O)(=O)N2CCCCCC2)cc1)C(N)=S | inactive: 0.535% | – |
| CCc1ccc(C(c2ccc(CC)cc2)C(Cl)Cl)cc1 | – | inconclusive [activator, single point] |
| CCCCc1ccc(NC(=S)NCc2cccc(OC)c2)cc1 | – | inconclusive [activator, single point] |
| Cc1cc(C)c(S(=O)(=O)N2CCCC2=O)c(C)c1N(C)S(C)(=O)=O | – | inconclusive [activator, single point] |
| COc1ccc(CCNC(=S)NC(=O)c2ccccc2)cc1C | – | inconclusive [activator, partial curve] |
| COc1ccccc1C(=O)Nc1nnc(S(=O)(=O)N2CCC(C)CC2)s1 | – | inconclusive [activator, partial curve, poor fit] |
| Cc1ccc(-c2csc(NC(=O)c3ccco3)n2)cc1C | – | inconclusive [activator, single point] |
| CN(c1ccc(C(=O)N2CCN(Cc3ccccc3)CC2)cc1)S(=O)(=O)c1ccccc1 | inactive: 12.3% | – |
| O=C(COC(=O)/C=C/c1ccccc1)Nc1cccnc1Cl | inactive: -35.1% | – |
| Cc1ccccc1CN1C[C@@H]2C[C@@H](c3cn[nH]c3-c3ccccc3)N3CCC[C@@]23C1=O | inactive: 12.2% | – |
| Cc1ccc(-c2ccc(OC(=O)c3ccc(=O)[nH]c3)c(C)c2)cc1 | – | inconclusive [activator, partial curve, poor fit] |
| COCCn1c(C)cc(C(=O)COC(=O)c2cccnc2SC)c1C | inactive: -0.839% | – |
| O=C(Nc1nnc(Cc2c[nH]c3ccccc23)s1)c1ccc(Cl)cc1Cl | – | inconclusive [activator, partial curve, poor fit] |
| CCOC(=O)C1CCN(C(=O)c2c(C)oc3c2C(=O)c2ccccc2C3=O)CC1 | – | inconclusive [activator, partial curve, poor fit] |
| CN=C1S/C(=C\c2cccc(Cl)c2Cl)C(=O)N1C | inactive: 20% | – |
| O=C(Nc1ccc([N+](=O)[O-])cc1)Nc1ccc(Cl)cc1F | – | inconclusive [activator, partial curve, poor fit] |
| COC(=O)[C@@H](NCc1ccc(B(O)O)cc1)C(C)C | – | inconclusive [activator, single point] |
| O=C(O)c1cnc(-c2ccccc2)nc1Sc1ccc(Cl)cc1Cl | – | inconclusive [activator, single point] |
| Cc1ccccc1NC(=O)Cc1nc(COC(=O)c2cc(Br)ccc2O)cs1 | – | active: 16.4 µM |

| SMILES | activity, positive = re-replication | Potency |
| --- | --- | --- |
| CCn1c(=O)c2cc(C(=O)N(C)c3ccccc3F)sc2c2ccccc21 | – | inconclusive [activator, partial curve, poor fit] |
| Cc1nnsc1C(=O)N1CCCC(N2CCN(c3ccc(F)cc3)CC2)C1 (centres undefined) | inactive: 1.04% | – |
| CCc1cc(=O)oc2cc(C)cc(OC(C)C(=O)NCc3ccccn3)c12 (centres undefined) | inactive: 1.75% | – |
| CC(C)C(OC(=O)c1cccc(S(=O)(=O)NCC(F)(F)F)c1)C(=O)NC(N)=O (centres undefined) | inactive: -0.0579% | – |
| COc1ccccc1N1CCN(C/C(O)=C(\C#N)c2nc(-c3ccccc3)cs2)CC1 | – | inconclusive [activator, single point] |
| O=c1cc(Nc2ccc3c(c2)OCCO3)[nH]c(=O)n1-c1ccc(Br)cc1 | – | inconclusive [activator, partial curve, poor fit] |
| COc1ccc(NC(=O)C2CCCC2)cn1 | inactive: 3.79% | – |
| C=CCC[C@@H](Cc1ccc(F)cc1)C(=O)OC[C@@H]1CCCN1C(=O)[C@@H](CC=C)CC(=O)N(CCO)Cc1ccccc1 | – | inconclusive [activator, single point] |
| COc1cc([N+](=O)[O-])cc2cc(C(=O)N3CCCC3)c(=O)oc12 | inactive: 0.986% | – |
| COc1ccc(Cl)cc1-n1c(C)cc(C(=O)OCC(=O)N2CC(=O)Nc3ccccc32)c1C | – | inconclusive [activator, single point] |
| CCOC(=O)c1c(C)[nH]c(C)c1C(=O)COC(=O)c1ccc(Cl)c(S(=O)(=O)NCc2ccccc2)c1 | – | inconclusive [activator, single point] |
| CCCCOc1ccc(C2C(=O)N(C3CCCCC3)CC(=O)N2CC2CCCO2)cc1 (centres undefined) | inactive: -0.939% | – |
| CCC1CN(C(=O)NCc2cccc(OC)c2)c2cc(Cl)ccc2O1 (centres undefined) | – | inconclusive [activator, partial curve] |
| CC(C)(C)c1ccccc1OCCOCCNCc1ccccc1 | – | inconclusive [activator, full curve, poor fit] |
| CC(C)(C)c1ccc(OCc2ccc(C(=O)N/N=C/c3ccc(O)c(O)c3)cc2)cc1 | – | inconclusive [activator, single point] |
| COc1ccc(C(=O)CNc2ccccc2C#N)cc1 | inactive: 15.1% | – |
| O=C(CN1CCCc2ccccc21)Nc1cccc(S(=O)(=O)N2CCOCC2)c1 | inactive: -0.552% | – |
| CCOC(=O)COn1c(=O)c(-c2ccco2)[n+]([O-])c2ccccc21 | inactive: -2.58% | – |
| O=C(OCC(=O)N1CCC(Cc2ccccc2)CC1)c1ccccc1O | – | inconclusive [activator, single point] |
| Cc1ccc(-n2ncc3c(NCCCN4CCCC4=O)ncnc32)c(C)c1 | – | inconclusive [activator, single point] |
| COc1ccc(CNC(=O)C(c2ccc(C)o2)N(Cc2cccs2)C(=O)Cc2cccs2)cc1 (centres undefined) | – | inconclusive [activator, single point] |
| O=C1CCCc2c1cc(-c1ccccc1)n2-c1ccc(O)cc1 | – | inconclusive [activator, partial curve, poor fit] |
| O=C(CCl)N(CCCNC(=O)C(F)(F)F)c1ccc([N+](=O)[O-])cc1 | – | inconclusive [activator, single point] |
